Measured values reported in the supplement of paper PMC12230231.
± gives the standard deviation of the averaged measurements. Restriction of a single-cycle SIVsab GFP reporter by TRIM5α v1-loop variants in CRFK cells. Human variants: read share among cells still uninfected after two challenges over input, higher = gained restriction. Rhesus variants: share among infected cells over input, higher = lost restriction. Reporter dose not given per row. No active / inactive call per row; the paper calls a change when both replicates lie above its controls (mean + 2 SD of stop or wild-type variants, or the top frameshift score). Residues outside the varied loop are taken from Swiss-Prot. The paper reads the human single-substitution scores as noise; they and the rhesus combinations repeat poorly (rank correlation 0.3 to 0.4), indel scores repeat only for the top variants, rhesus substitutions well (0.9).

What follows are sequences tested on SIVsab (simian immunodeficiency virus of sabaeus monkeys), single-cycle GFP reporter, in CRFK cells (assay: enrichment among uninfected cells over input (fold); higher = stronger restriction). Details: library: human / rhesus combinations.
Procedure: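 Pools of CRFK cells expressing variants of the TRIM5α v1 loop were challenged with the single-cycle reporter, sorted by GFP and sequenced; mean of two replicates.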
“MASGILVNVKEEVTCPICLELLTQPLSLDCGHSFCQACLTANHKKSMLDKGESSCPVCRISYQPENIRPNRHVANIVEKLREVKLSPEGQKVDHCARHGEKLLLFCQEDGKVICWLCERSQEHRGHHTFLTEEVAREYQVKLQAALEMLRQKQQEAEELEADIREEKASWKTQIQYDKTNVLADFEQLRDILDWEESNELQNLEKEEEDILKSLTNSETEMVQQTQSLRELISDLEHRLQGSVMELLQGVDGVIKRTENVTLKKPETFPKNQRRVFRAPDLKGMLEVFRELTDVRRYWVDVTVAPNNISCAVISEDKRQVSSPKPQIIYQARGTLYTFPSFTNFNYCTGILGSQSITSGKHYWEVDVSKKTAWILGVCAGFQPDAMCNIEKNENYQPKYGYWVIGLEEGVKCSAFQDSSFHTPSVPFIVPLSVIICPDRVGVFLDYEACTVSFFNITNHGFLIYKFSHCSFSQPVFPYLNPRKCGVPMTLCSPSS [human TRIM5α, 330-340 = QARGTLYTFPSFT]” gave an enrichment of 0.199 ± 0.11. “MASGILVNVKEEVTCPICLELLTQPLSLDCGHSFCQACLTANHKKSMLDKGESSCPVCRISYQPENIRPNRHVANIVEKLREVKLSPEGQKVDHCARHGEKLLLFCQEDGKVICWLCERSQEHRGHHTFLTEEVAREYQVKLQAALEMLRQKQQEAEELEADIREEKASWKTQIQYDKTNVLADFEQLRDILDWEESNELQNLEKEEEDILKSLTNSETEMVQQTQSLRELISDLEHRLQGSVMELLQGVDGVIKRTENVTLKKPETFPKNQRRVFRAPDLKGMLEVFRELTDVRRYWVDVTVAPNNISCAVISEDKRQVSSPKPQIIYGARGTLYPTLVNFNYCTGILGSQSITSGKHYWEVDVSKKTAWILGVCAGFQPDAMCNIEKNENYQPKYGYWVIGLEEGVKCSAFQDSSFHTPSVPFIVPLSVIICPDRVGVFLDYEACTVSFFNITNHGFLIYKFSHCSFSQPVFPYLNPRKCGVPMTLCSPSS [human TRIM5α, 330-340 = GARGTLYPTLV]” was tested, and the enrichment was 0.00614 ± 0.0034. For “MASGILVNVKEEVTCPICLELLTQPLSLDCGHSFCQACLTANHKKSMLDKGESSCPVCRISYQPENIRPNRHVANIVEKLREVKLSPEGQKVDHCARHGEKLLLFCQEDGKVICWLCERSQEHRGHHTFLTEEVAREYQVKLQAALEMLRQKQQEAEELEADIREEKASWKTQIQYDKTNVLADFEQLRDILDWEESNELQNLEKEEEDILKSLTNSETEMVQQTQSLRELISDLEHRLQGSVMELLQGVDGVIKRTENVTLKKPETFPKNQRRVFRAPDLKGMLEVFRELTDVRRYWVDVTVAPNNISCAVISEDKRQVSSPKPQIIYGARGTLFPSLVNFNYCTGILGSQSITSGKHYWEVDVSKKTAWILGVCAGFQPDAMCNIEKNENYQPKYGYWVIGLEEGVKCSAFQDSSFHTPSVPFIVPLSVIICPDRVGVFLDYEACTVSFFNITNHGFLIYKFSHCSFSQPVFPYLNPRKCGVPMTLCSPSS [human TRIM5α, 330-340 = GARGTLFPSLV]”, the enrichment was 0.328 ± 0.46. Work on “MASGILVNVKEEVTCPICLELLTQPLSLDCGHSFCQACLTANHKKSMLDKGESSCPVCRISYQPENIRPNRHVANIVEKLREVKLSPEGQKVDHCARHGEKLLLFCQEDGKVICWLCERSQEHRGHHTFLTEEVAREYQVKLQAALEMLRQKQQEAEELEADIREEKASWKTQIQYDKTNVLADFEQLRDILDWEESNELQNLEKEEEDILKSLTNSETEMVQQTQSLRELISDLEHRLQGSVMELLQGVDGVIKRTENVTLKKPETFPKNQRRVFRAPDLKGMLEVFRELTDVRRYWVDVTVAPNNISCAVISEDKRQVSSPKPQIIYQARGTLFTFPTFVNFNYCTGILGSQSITSGKHYWEVDVSKKTAWILGVCAGFQPDAMCNIEKNENYQPKYGYWVIGLEEGVKCSAFQDSSFHTPSVPFIVPLSVIICPDRVGVFLDYEACTVSFFNITNHGFLIYKFSHCSFSQPVFPYLNPRKCGVPMTLCSPSS [human TRIM5α, 330-340 = QARGTLFTFPTFV]” yielded an enrichment of 0.356 ± 0.0092. “MASGILVNVKEEVTCPICLELLTQPLSLDCGHSFCQACLTANHKKSMLDKGESSCPVCRISYQPENIRPNRHVANIVEKLREVKLSPEGQKVDHCARHGEKLLLFCQEDGKVICWLCERSQEHRGHHTFLTEEVAREYQVKLQAALEMLRQKQQEAEELEADIREEKASWKTQIQYDKTNVLADFEQLRDILDWEESNELQNLEKEEEDILKSLTNSETEMVQQTQSLRELISDLEHRLQGSVMELLQGVDGVIKRTENVTLKKPETFPKNQRRVFRAPDLKGMLEVFRELTDVRRYWVDVTVAPNNISCAVISEDKRQVSSPKPQIIYQAPGTRYTFQSLVNFNYCTGILGSQSITSGKHYWEVDVSKKTAWILGVCAGFQPDAMCNIEKNENYQPKYGYWVIGLEEGVKCSAFQDSSFHTPSVPFIVPLSVIICPDRVGVFLDYEACTVSFFNITNHGFLIYKFSHCSFSQPVFPYLNPRKCGVPMTLCSPSS [human TRIM5α, 330-340 = QAPGTRYTFQSLV]” gave an enrichment of 0.318 ± 0.08. Work on “MASGILVNVKEEVTCPICLELLTQPLSLDCGHSFCQACLTANHKKSMLDKGESSCPVCRISYQPENIRPNRHVANIVEKLREVKLSPEGQKVDHCARHGEKLLLFCQEDGKVICWLCERSQEHRGHHTFLTEEVAREYQVKLQAALEMLRQKQQEAEELEADIREEKASWKTQIQYDKTNVLADFEQLRDILDWEESNELQNLEKEEEDILKSLTNSETEMVQQTQSLRELISDLEHRLQGSVMELLQGVDGVIKRTENVTLKKPETFPKNQRRVFRAPDLKGMLEVFRELTDVRRYWVDVTVAPNNISCAVISEDKRQVSSPKPQIIYQARGTRYTFQSLVNFNYCTGILGSQSITSGKHYWEVDVSKKTAWILGVCAGFQPDAMCNIEKNENYQPKYGYWVIGLEEGVKCSAFQDSSFHTPSVPFIVPLSVIICPDRVGVFLDYEACTVSFFNITNHGFLIYKFSHCSFSQPVFPYLNPRKCGVPMTLCSPSS [human TRIM5α, 330-340 = QARGTRYTFQSLV]” yielded an enrichment of 0.55 ± 0.035. “MASGILVNVKEEVTCPICLELLTQPLSLDCGHSFCQACLTANHKKSMLDKGESSCPVCRISYQPENIRPNRHVANIVEKLREVKLSPEGQKVDHCARHGEKLLLFCQEDGKVICWLCERSQEHRGHHTFLTEEVAREYQVKLQAALEMLRQKQQEAEELEADIREEKASWKTQIQYDKTNVLADFEQLRDILDWEESNELQNLEKEEEDILKSLTNSETEMVQQTQSLRELISDLEHRLQGSVMELLQGVDGVIKRTENVTLKKPETFPKNQRRVFRAPDLKGMLEVFRELTDVRRYWVDVTVAPNNISCAVISEDKRQVSSPKPQIIYQARGTLFTFPSLVNFNYCTGILGSQSITSGKHYWEVDVSKKTAWILGVCAGFQPDAMCNIEKNENYQPKYGYWVIGLEEGVKCSAFQDSSFHTPSVPFIVPLSVIICPDRVGVFLDYEACTVSFFNITNHGFLIYKFSHCSFSQPVFPYLNPRKCGVPMTLCSPSS [human TRIM5α, 330-340 = QARGTLFTFPSLV]” was tested, and the enrichment was 0.342 ± 0.11.

Same assay, conditions: library: insertions and deletions
For “MASGILVNVKEEVTCPICLELLTQPLSLDCGHSFCQACLTANHKKSMLDKGESSCPVCRISYQPENIRPNRHVANIVEKLREVKLSPEGQKVDHCARHGEKLLLFCQEDGKVICWLCERSQEHRGHHTFLTEEVAREYQVKLQAALEMLRQKQQEAEELEADIREEKASWKTQIQYDKTNVLADFEQLRDILDWEESNELQNLEKEEEDILKSLTNSETEMVQQTQSLRELISDLEHRLQGSVMELLQGVDGVIKRTENVTLKKPETFPKNQRRVFRAPDLKGMLEVFRELTDVRRYWVDVTVAPNNISCAVISEDKRQVSSPKPGTRYQTFVNFNYCTGILGSQSITSGKHYWEVDVSKKTAWILGVCAGFQPDAMCNIEKNENYQPKYGYWVIGLEEGVKCSAFQDSSFHTPSVPFIVPLSVIICPDRVGVFLDYEACTVSFFNITNHGFLIYKFSHCSFSQPVFPYLNPRKCGVPMTLCSPSS [human TRIM5α, 7-codon deletion at 326]”, the enrichment was 1.46 ± 0.23. Work on “MASGILVNVKEEVTCPICLELLTQPLSLDCGHSFCQACLTANHKKSMLDKGESSCPVCRISYQPENIRPNRHVANIVEKLREVKLSPEGQKVDHCARHGEKLLLFCQEDGKVICWLCERSQEHRGHHTFLTEEVAREYQVKLQAALEMLRQKQQEAEELEADIREEKASWKTQIQYDKTNVLADFEQLRDILDWEESNELQNLEKEEEDILKSLTNSETEMVQQTQSLRELISDLEHRLQGSVMELLQGVDGVIKRTENVTLKKPETFPKNQRRVFRAPDLKGMLEVFRELTDVRRYWVDVTVAPNNISCAVISEDKRQVSSPKPQIIYGARGTRYQTFVNYQTFVNFNYCTGILGSQSITSGKHYWEVDVSKKTAWILGVCAGFQPDAMCNIEKNENYQPKYGYWVIGLEEGVKCSAFQDSSFHTPSVPFIVPLSVIICPDRVGVFLDYEACTVSFFNITNHGFLIYKFSHCSFSQPVFPYLNPRKCGVPMTLCSPSS [human TRIM5α, 6-codon duplication at 336]” yielded an enrichment of 0.117 ± 0.031. For “MASGILVNVKEEVTCPICLELLTQPLSLDCGHSFCQACLTANHKKSMLDKGESSCPVCRISYQPENIRPNRHVANIVEKLREVKLSPEGQKVDHCARHGEKLLLFCQEDGKVICWLCERSQEHRGHHTFLTEEVAREYQVKLQAALEMLRQKQQEAEELEADIREEKASWKTQIQYDKTNVLADFEQLRDILDWEESNELQNLEKEEEDILKSLTNSETEMVQQTQSLRELISDLEHRLQGSVMELLQGVDGVIKRTENVTLKKPETFPKNQRRVFRAPDLKGMLEVFRELTDVRRYWVDVTVAPNNISCAVISEDKRQVSSPKPQIIYGARGTRFVNFNYCTGILGSQSITSGKHYWEVDVSKKTAWILGVCAGFQPDAMCNIEKNENYQPKYGYWVIGLEEGVKCSAFQDSSFHTPSVPFIVPLSVIICPDRVGVFLDYEACTVSFFNITNHGFLIYKFSHCSFSQPVFPYLNPRKCGVPMTLCSPSS [human TRIM5α, 3-codon deletion at 336]”, the enrichment was 0.854 ± 0.49. For “MASGILVNVKEEVTCPICLELLTQPLSLDCGHSFCQACLTANHKKSMLDKGESSCPVCRISYQPENIRPNRHVANIVEKLREVKLSPEGQKVDHCARHGEKLLLFCQEDGKVICWLCERSQEHRGHHTFLTEEVAREYQVKLQAALEMLRQKQQEAEELEADIREEKASWKTQIQYDKTNVLADFEQLRDILDWEESNELQNLEKEEEDILKSLTNSETEMVQQTQSLRELISDLEHRLQGSVMELLQGVDGVIKRTENVTLKKPETFPKNQRRVFRAPDLKGMLEVFRELTDVRRYWVDVTVAPNNISCAVISEDKRQVSSPKGTRYQTFVNFNYCTGILGSQSITSGKHYWEVDVSKKTAWILGVCAGFQPDAMCNIEKNENYQPKYGYWVIGLEEGVKCSAFQDSSFHTPSVPFIVPLSVIICPDRVGVFLDYEACTVSFFNITNHGFLIYKFSHCSFSQPVFPYLNPRKCGVPMTLCSPSS [human TRIM5α, 8-codon deletion at 325]”, the enrichment was 0.649 ± 0.44. “MASGILVNVKEEVTCPICLELLTQPLSLDCGHSFCQACLTANHKKSMLDKGESSCPVCRISYQPENIRPNRHVANIVEKLREVKLSPEGQKVDHCARHGEKLLLFCQEDGKVICWLCERSQEHRGHHTFLTEEVAREYQVKLQAALEMLRQKQQEAEELEADIREEKASWKTQIQYDKTNVLADFEQLRDILDWEESNELQNLEKEEEDILKSLTNSETEMVQQTQSLRELISDLEHRLQGSVMELLQGVDGVIKRTENVTLKKPETFPKNQRRVFRAPDLKGMLEVFRELTDVRRYWVDVTVAPNNISCAVISEDKRQVSSPKPQIIYGARGTRYQFVNFNYCTGILGSQSITSGKHYWEVDVSKKTAWILGVCAGFQPDAMCNIEKNENYQPKYGYWVIGLEEGVKCSAFQDSSFHTPSVPFIVPLSVIICPDRVGVFLDYEACTVSFFNITNHGFLIYKFSHCSFSQPVFPYLNPRKCGVPMTLCSPSS [human TRIM5α, 1-codon deletion at 338]” showed an enrichment of 0.306 ± 0.11.
